Test results published in the supplement of paper PMC12217912.
This is one part of the list. Sequences were assembled here from the parent chain. Values near 0.05 are background.

B1: TEV protease; numbered along this chain (parent)
chain: MGESLFKGPRDYNPISSSICHLTNESDGHTTSLYGIGFGPFIITNKHLFRRNNGTLVVQSLHGVFKVKDTTTLQQHLVDGRDMIIIRMPKDFPPFPQKLKFREPQREERICLVTTNFQTKSMSSMVSDTSCTFPSGDGIFWKHWIQTKDGQCGSPLVSTRDGFIVGIHSASNFTNTNNYFTSVPKNFMELLTNQEAQQWVSGWRLNADSVLWGGHKVFMVKPEEPFQPVKEATQL

Variants of: B1
Assay: raw area under fraction-flipped curve 0-4 h after induction (AUC4h, not background-subtracted), DNA-recorder readout of cleavage of the substrate (dimensionless); higher = more cleavage of the substrate by the protease variant
Conditions: temperature: 34 °C; time window: 0-4 h after rhamnose induction
Protocol: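 In vivo DNA recorder in E. coli TOP10(DE3) ΔrhaA at 34 °C. Each TEVp single-site mutant (parent TEVp 0) is paired with a single-site variant of the 7-mer TEVs (canonical ENLYFQ|S). The substrate sits between flexible linkers in a Bxb1-sfGFP-TEVs-SsrA fusion, so cleavage stabilises Bxb1 and speeds flipping of a recombination array, read by NGS. The value is the raw area under the fraction-flipped curve over 0-4 h after rhamnose induction (AUC4h), with ≥20 reads per time point. It is not background-subtracted; inactive controls average about 0.047.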
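Also: Bxb1 expression induced with 0.2% (w/v) L-rhamnose at OD600 near 0.5, cultures sampled hourly, flipped fraction per protease–substrate barcode pair counted by paired-end Illumina sequencing.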

Row | Variant | area with substrate ENLYFAS | area with substrate ENLYFCS | area with substrate ENLYFDS | area with substrate ENLYFES | area with substrate ENLYFFS | area with substrate ENLYFGS | area with substrate ENLYFHS | area with substrate ENLYFIS | area with substrate ENLYFNS | area with substrate ENLYFPS | area with substrate ENLYFRS | area with substrate ENLYFSS | area with substrate ENLYFTS | area with substrate ENLYFVS | area with substrate ENLYFWS | area with substrate ENLYFYS | area with substrate ENLYFKS | area with substrate ENLYFLS | area with substrate ENLYFMS
1 | N53Y | 0.0517 | 0.0552 | 0.0576 | 0.0723 | 0.0656 | 0.0584 | 0.0726 | 0.0611 | 0.0599 | 0.0562 | 0.0512 | 0.0598 | 0.0565 | 0.0784 | 0.0659 | 0.0608 |  |  | 
2 | N53W | 0.035 |  | 0.0831 | 0.0649 | 0.0657 | 0.0666 |  | 0.0468 |  | 0.0523 | 0.063 |  | 0.0519 | 0.0536 | 0.0614 | 0.0494 | 0.0593 | 0.0643 | 0.0648
3 | N53F | 0.0616 | 0.0656 | 0.0572 | 0.0473 | 0.0565 | 0.058 |  | 0.0575 |  | 0.0323 |  | 0.0353 |  |  |  | 0.0472 |  |  | 
4 | G54E | 0.0633 | 0.059 |  |  | 0.0622 | 0.0539 |  | 0.0515 | 0.0541 | 0.0668 | 0.0638 |  | 0.0701 |  |  |  | 0.0656 | 0.0519 | 0.0569
5 | L5K | 0.0568 | 0.0538 |  | 0.0708 | 0.0628 |  | 0.0482 | 0.0567 |  | 0.0434 |  |  |  |  | 0.0258 |  |  |  | 0.0673
6 | F49W | 0.0619 | 0.0486 | 0.0508 | 0.0769 | 0.0652 |  | 0.0728 |  | 0.0568 | 0.0583 | 0.0571 | 0.055 | 0.0571 | 0.0392 | 0.0477 | 0.0563 | 0.0636 | 0.0608 | 0.0701
7 | I15T | 0.0652 | 0.0662 | 0.0631 | 0.0562 | 0.0675 | 0.0466 | 0.0595 | 0.0522 | 0.0738 | 0.0566 | 0.058 | 0.0353 | 0.0494 | 0.0646 | 0.0678 | 0.0543 | 0.0574 | 0.0574 | 0.0656
8 | E25F | 0.0636 | 0.0507 | 0.0315 | 0.0843 | 0.0586 |  | 0.0486 | 0.0428 | 0.0646 | 0.0538 |  | 0.0571 | 0.0586 | 0.0413 |  | 0.0723 | 0.06 | 0.069 | 
9 | E25M | 0.0624 |  | 0.0622 | 0.0615 | 0.0843 | 0.0572 | 0.0634 | 0.0544 | 0.0597 | 0.0655 | 0.0548 | 0.0475 | 0.0683 | 0.0639 | 0.062 |  | 0.0677 | 0.0542 | 0.0724
10 | Y34R | 0.0688 |  |  | 0.062 |  |  |  |  |  | 0.0541 | 0.0458 | 0.0344 | 0.0878 |  | 0.0351 |  | 0.0345 | 0.0616 | 0.0521
11 | Y34S | 0.0632 |  | 0.0302 | 0.0563 |  |  | 0.0501 | 0.0618 | 0.0684 | 0.0589 | 0.0534 |  | 0.0603 | 0.0342 |  |  | 0.078 |  | 
12 | Y34V | 0.0488 |  |  | 0.051 | 0.0686 | 0.0735 | 0.059 | 0.0627 | 0.0545 | 0.0705 |  |  |  |  | 0.0564 | 0.0578 | 0.054 |  | 0.0533
13 | V58H | 0.0459 |  |  |  |  |  |  | 0.0473 |  |  |  |  |  |  |  | 0.0613 | 0.0534 |  | 0.0615
